Assay results: PMC12820563
Some of the results follow. The list includes weakly bound sequences.

molecular target: T1, MBP-FoxP3dN (UniProt Q99JB6); experiment: PD-seq (MBP pull-down with sequencing); settings: 20 mM Tris-HCl pH 7.5, 100 mM NaCl, 1.5 mM MgCl2, 0.4 uM protein, 0.1 uM dsDNA library, 30 min, room temperature, amylose pull-down; high values mean tight binding; double strand, one strand shown
T1 sequence: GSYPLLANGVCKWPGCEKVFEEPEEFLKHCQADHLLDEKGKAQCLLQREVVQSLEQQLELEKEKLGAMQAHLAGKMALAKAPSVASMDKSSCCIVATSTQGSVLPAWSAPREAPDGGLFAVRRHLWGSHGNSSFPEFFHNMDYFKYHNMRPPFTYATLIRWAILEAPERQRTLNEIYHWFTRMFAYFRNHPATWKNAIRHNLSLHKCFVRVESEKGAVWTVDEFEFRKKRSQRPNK

Sequence	binding signal (RPM ratio (pull-down/input))
GATGATTGTTCTCCCAGCTGATGAATTTATCCTCTCGAGTAAACAAATTTTCCTAATCTTTCTGTTCAAGCGCCATCTAC	0.839
GATGATTGTTCTCCCAGCTGATGAATTGCCCAAATCGAGTAAACAAATTTTCCTAATCTTTCTGTTCAAGCGCCATCTAC	0.385
GATGATTGTTCTCCCAGCTGATGAATTCTCCGCCTCGAGTAAACAAATTTTCCTAATCTTTCTGTTCAAGCGCCATCTAC	0.428
GATGATTGTTCTCCCAGCTGATGAATTCACTGCGTCGAGTAAACAAATTTTCCTAATCTTTCTGTTCAAGCGCCATCTAC	0.48
GATGATTGTTCTCCCAGCTGATGAATTTCCATACTCGAGTAAACAAATTTTCCTAATCTTTCTGTTCAAGCGCCATCTAC	0.355
GATGATTGTTCTCCCAGCTGATGAATTACTTGCATCGAGTAAACAAATTTTCCTAATCTTTCTGTTCAAGCGCCATCTAC	1.25
GATGATTGTTCTCCCAGCTGATGAATTTTATTATTCGAGTAAACAAATTTTCCTAATCTTTCTGTTCAAGCGCCATCTAC	5.53
GATGATTGTTCTCCCAGCTGATGAATTGGTCGCATCGAGTAAACAAATTTTCCTAATCTTTCTGTTCAAGCGCCATCTAC	1.1
GATGATTGTTCTCCCAGCTGATGAATTACTGGTGTCGAGTAAACAAATTTTCCTAATCTTTCTGTTCAAGCGCCATCTAC	0.479
GATGATTGTTCTCCCAGCTGATGAATTCAAGTCCTCGAGTAAACAAATTTTCCTAATCTTTCTGTTCAAGCGCCATCTAC	0.326
GATGATTGTTCTCCCAGCTGATGAATTGGCACCCTCGAGTAAACAAATTTTCCTAATCTTTCTGTTCAAGCGCCATCTAC	0.365
GATGATTGTTCTCCCAGCTGATGAATTCAAATGATCGAGTAAACAAATTTTCCTAATCTTTCTGTTCAAGCGCCATCTAC	0.268
GATGATTGTTCTCCCAGCTGATGAATTAATCCGTTCGAGTAAACAAATTTTCCTAATCTTTCTGTTCAAGCGCCATCTAC	0.306
GATGATTGTTCTCCCAGCTGATGAATTCTGCAATTCGAGTAAACAAATTTTCCTAATCTTTCTGTTCAAGCGCCATCTAC	4.83
GATGATTGTTCTCCCAGCTGATGAATTCCCAATATCGAGTAAACAAATTTTCCTAATCTTTCTGTTCAAGCGCCATCTAC	0.388
GATGATTGTTCTCCCAGCTGATGAATTTGCTCGGTCGAGTAAACAAATTTTCCTAATCTTTCTGTTCAAGCGCCATCTAC	0.383
GATGATTGTTCTCCCAGCTGATGAATTACGCCGGTCGAGTAAACAAATTTTCCTAATCTTTCTGTTCAAGCGCCATCTAC	0.649
GATGATTGTTCTCCCAGCTGATGAATTGCATAATTCGAGTAAACAAATTTTCCTAATCTTTCTGTTCAAGCGCCATCTAC	0.889
GATGATTGTTCTCCCAGCTGATGAATTTCGGACATCGAGTAAACAAATTTTCCTAATCTTTCTGTTCAAGCGCCATCTAC	0.402
GATGATTGTTCTCCCAGCTGATGAATTGAATGGGTCGAGTAAACAAATTTTCCTAATCTTTCTGTTCAAGCGCCATCTAC	0.399
GATGATTGTTCTCCCAGCTGATGAATTGGACATCTCGAGTAAACAAATTTTCCTAATCTTTCTGTTCAAGCGCCATCTAC	0.583

Sequence	binding signal (RPM ratio (pull-down/input))
GATGATTGTTCTCCCAGCTGATGAATTAGGGATCTCGAGTAAACAAATTTTCCTAATCTTTCTGTTCAAGCGCCATCTAC	0.41
GATGATTGTTCTCCCAGCTGATGAATTACCTTAATCGAGTAAACAAATTTTCCTAATCTTTCTGTTCAAGCGCCATCTAC	0.256
GATGATTGTTCTCCCAGCTGATGAATTGATGACGTCGAGTAAACAAATTTTCCTAATCTTTCTGTTCAAGCGCCATCTAC	0.587
GATGATTGTTCTCCCAGCTGATGAATTTAAGTCGTCGAGTAAACAAATTTTCCTAATCTTTCTGTTCAAGCGCCATCTAC	0.452
GATGATTGTTCTCCCAGCTGATGAATTATAACGATCGAGTAAACAAATTTTCCTAATCTTTCTGTTCAAGCGCCATCTAC	0.391
GATGATTGTTCTCCCAGCTGATGAATTCCTACTTTCGAGTAAACAAATTTTCCTAATCTTTCTGTTCAAGCGCCATCTAC	0.281
GATGATTGTTCTCCCAGCTGATGAATTATCTCCTTCGAGTAAACAAATTTTCCTAATCTTTCTGTTCAAGCGCCATCTAC	0.3
GATGATTGTTCTCCCAGCTGATGAATTCACCCACTCGAGTAAACAAATTTTCCTAATCTTTCTGTTCAAGCGCCATCTAC	0.333
GATGATTGTTCTCCCAGCTGATGAATTATTGGTTTCGAGTAAACAAATTTTCCTAATCTTTCTGTTCAAGCGCCATCTAC	1.97
GATGATTGTTCTCCCAGCTGATGAATTCTGGGCATCGAGTAAACAAATTTTCCTAATCTTTCTGTTCAAGCGCCATCTAC	0.572
GATGATTGTTCTCCCAGCTGATGAATTTTCAACATCGAGTAAACAAATTTTCCTAATCTTTCTGTTCAAGCGCCATCTAC	0.465
GATGATTGTTCTCCCAGCTGATGAATTCAGTAGGTCGAGTAAACAAATTTTCCTAATCTTTCTGTTCAAGCGCCATCTAC	0.419
GATGATTGTTCTCCCAGCTGATGAATTGTATGGTTCGAGTAAACAAATTTTCCTAATCTTTCTGTTCAAGCGCCATCTAC	1.94
GATGATTGTTCTCCCAGCTGATGAATTCTCGCCGTCGAGTAAACAAATTTTCCTAATCTTTCTGTTCAAGCGCCATCTAC	0.493
GATGATTGTTCTCCCAGCTGATGAATTTGCTCGTTCGAGTAAACAAATTTTCCTAATCTTTCTGTTCAAGCGCCATCTAC	0.725
GATGATTGTTCTCCCAGCTGATGAATTGCTCACTTCGAGTAAACAAATTTTCCTAATCTTTCTGTTCAAGCGCCATCTAC	0.581
GATGATTGTTCTCCCAGCTGATGAATTGCCCGCGTCGAGTAAACAAATTTTCCTAATCTTTCTGTTCAAGCGCCATCTAC	0.671
GATGATTGTTCTCCCAGCTGATGAATTAATCGATTCGAGTAAACAAATTTTCCTAATCTTTCTGTTCAAGCGCCATCTAC	0.346
GATGATTGTTCTCCCAGCTGATGAATTCTCATAGTCGAGTAAACAAATTTTCCTAATCTTTCTGTTCAAGCGCCATCTAC	0.265
GATGATTGTTCTCCCAGCTGATGAATTGCGGAGGTCGAGTAAACAAATTTTCCTAATCTTTCTGTTCAAGCGCCATCTAC	0.483
GATGATTGTTCTCCCAGCTGATGAATTCTTCTCATCGAGTAAACAAATTTTCCTAATCTTTCTGTTCAAGCGCCATCTAC	0.242

Sequence	binding signal (RPM ratio (pull-down/input))
GATGATTGTTCTCCCAGCTGATGAATTCACATAATCGAGTAAACAAATTTTCCTAATCTTTCTGTTCAAGCGCCATCTAC	0.306
GATGATTGTTCTCCCAGCTGATGAATTAAACTTTTCGAGTAAACAAATTTTCCTAATCTTTCTGTTCAAGCGCCATCTAC	0.354
GATGATTGTTCTCCCAGCTGATGAATTAAAGGTTTCGAGTAAACAAATTTTCCTAATCTTTCTGTTCAAGCGCCATCTAC	0.403
GATGATTGTTCTCCCAGCTGATGAATTAGTGGAATCGAGTAAACAAATTTTCCTAATCTTTCTGTTCAAGCGCCATCTAC	0.336
GATGATTGTTCTCCCAGCTGATGAATTGTGGTTGTCGAGTAAACAAATTTTCCTAATCTTTCTGTTCAAGCGCCATCTAC	2.44
GATGATTGTTCTCCCAGCTGATGAATTACGACCGTCGAGTAAACAAATTTTCCTAATCTTTCTGTTCAAGCGCCATCTAC	0.429
GATGATTGTTCTCCCAGCTGATGAATTAATGTGTTCGAGTAAACAAATTTTCCTAATCTTTCTGTTCAAGCGCCATCTAC	1.77
GATGATTGTTCTCCCAGCTGATGAATTGCCCATCTCGAGTAAACAAATTTTCCTAATCTTTCTGTTCAAGCGCCATCTAC	0.523
GATGATTGTTCTCCCAGCTGATGAATTGGGGCAGTCGAGTAAACAAATTTTCCTAATCTTTCTGTTCAAGCGCCATCTAC	0.385
GATGATTGTTCTCCCAGCTGATGAATTACGTGACTCGAGTAAACAAATTTTCCTAATCTTTCTGTTCAAGCGCCATCTAC	0.737
GATGATTGTTCTCCCAGCTGATGAATTTGGGATCTCGAGTAAACAAATTTTCCTAATCTTTCTGTTCAAGCGCCATCTAC	0.452
GATGATTGTTCTCCCAGCTGATGAATTATTCTATTCGAGTAAACAAATTTTCCTAATCTTTCTGTTCAAGCGCCATCTAC	0.374
GATGATTGTTCTCCCAGCTGATGAATTGAGAACTTCGAGTAAACAAATTTTCCTAATCTTTCTGTTCAAGCGCCATCTAC	0.21
GATGATTGTTCTCCCAGCTGATGAATTGGGTAGCTCGAGTAAACAAATTTTCCTAATCTTTCTGTTCAAGCGCCATCTAC	0.45
GATGATTGTTCTCCCAGCTGATGAATTCATATAGTCGAGTAAACAAATTTTCCTAATCTTTCTGTTCAAGCGCCATCTAC	0.688
GATGATTGTTCTCCCAGCTGATGAATTTCTGGCATCGAGTAAACAAATTTTCCTAATCTTTCTGTTCAAGCGCCATCTAC	0.698
GATGATTGTTCTCCCAGCTGATGAATTGGACTCGTCGAGTAAACAAATTTTCCTAATCTTTCTGTTCAAGCGCCATCTAC	0.349
GATGATTGTTCTCCCAGCTGATGAATTCATGCACTCGAGTAAACAAATTTTCCTAATCTTTCTGTTCAAGCGCCATCTAC	1.26
GATGATTGTTCTCCCAGCTGATGAATTCTACCAATCGAGTAAACAAATTTTCCTAATCTTTCTGTTCAAGCGCCATCTAC	0.268
GATGATTGTTCTCCCAGCTGATGAATTCGCAATATCGAGTAAACAAATTTTCCTAATCTTTCTGTTCAAGCGCCATCTAC	1.39
GATGATTGTTCTCCCAGCTGATGAATTGGGCTGCTCGAGTAAACAAATTTTCCTAATCTTTCTGTTCAAGCGCCATCTAC	0.483
